# Laboratory results as given in the supplement of paper PMC8728848.
# This is one part of the list.
# What was measured:
# Assay in all cases: glycan array binding signal (z-score within array); higher = stronger binding
# Settings in all cases: glycan notation: IUPAC condensed, linker removed
# [1] = target: Fuc(a1-2)Gal6S(b1-3)GlcNAc6S
# Summary of the method: (§1)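 Glycan array data were curated from 3228 arrays in the Consortium for Functional Glycomics database and kept only where the protein sequence was available. Glycan names were converted to IUPAC-condensed notation, and columns mapping to the same glycan were averaged. The binding signal is a within-array Z-score, averaged across arrays of the same protein sequence at different concentrations or buffers and across linkers. Negative Z-scores can be read as non-binding.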
# [2] = target: Fuc(a1-2)Gal6S(b1-4)Glc
# Summary of the method: as §1
# [3] = target: Fuc(a1-2)Gal6S(b1-4)Glc6S
# Summary of the method: as §1
# [4] = target: Fuc(a1-2)[Gal(a1-3)]Gal
# Summary of the method: as §1
# [5] = target: Fuc(a1-2)[Gal(a1-3)]Gal(b1-3)GalNAc
# Summary of the method: as §1
# [6] = target: Fuc(a1-2)[Gal(a1-3)]Gal(b1-3)GalNAc(b1-3)Gal(a1-4)Gal(b1-4)Glc
# Summary of the method: as §1
# [7] = target: Fuc(a1-2)[Gal(a1-3)]Gal(b1-3)GlcNAc
# Summary of the method: as §1
# [8] = target: Fuc(a1-2)[Gal(a1-3)]Gal(b1-3)GlcNAc(b1-2)Man(a1-3)[Fuc(a1-2)[Gal(a1-3)]Gal(b1-3)GlcNAc(b1-2)Man(a1-6)]Man(b1-4)GlcNAc(b1-4)GlcNAc
# Summary of the method: as §1
# [9] = target: Fuc(a1-2)[Gal(a1-3)]Gal(b1-3)GlcNAc(b1-2)Man(a1-3)[Fuc(a1-2)[Gal(a1-3)]Gal(b1-3)GlcNAc(b1-2)Man(a1-6)]Man(b1-4)GlcNAc(b1-4)[Fuc(a1-6)]GlcNAc
# Summary of the method: as §1
# [10] = target: Fuc(a1-2)[Gal(a1-3)]Gal(b1-3)GlcNAc(b1-3)GalNAc
# Summary of the method: as §1
# [11] = target: Fuc(a1-2)[Gal(a1-3)]Gal(b1-3)GlcNAc(b1-6)GalNAc
# Summary of the method: as §1
# [12] = target: Fuc(a1-2)[Gal(a1-3)]Gal(b1-4)Glc
# Summary of the method: as §1
# [13] = target: Fuc(a1-2)[Gal(a1-3)]Gal(b1-4)GlcNAc
# Summary of the method: as §1
# [14] = target: Fuc(a1-2)[Gal(a1-3)]Gal(b1-4)GlcNAc(b1-2)Man
# Summary of the method: as §1
# [15] = target: Fuc(a1-2)[Gal(a1-3)]Gal(b1-4)GlcNAc(b1-2)Man(a1-3)[Fuc(a1-2)[Gal(a1-3)]Gal(b1-4)GlcNAc(b1-2)Man(a1-6)]Man(b1-4)GlcNAc(b1-4)GlcNAc
# Summary of the method: as §1
# [16] = target: Fuc(a1-2)[Gal(a1-3)]Gal(b1-4)GlcNAc(b1-2)Man(a1-3)[Fuc(a1-2)[Gal(a1-3)]Gal(b1-4)GlcNAc(b1-2)Man(a1-6)]Man(b1-4)GlcNAc(b1-4)[Fuc(a1-6)]GlcNAc
# Summary of the method: as §1
# [17] = target: Fuc(a1-2)[Gal(a1-3)]Gal(b1-4)GlcNAc(b1-3)GalNAc
# Summary of the method: as §1
# [18] = target: Fuc(a1-2)[Gal(a1-3)]Gal(b1-4)GlcNAc(b1-3)[Fuc(a1-2)[Gal(a1-3)]Gal(b1-4)GlcNAc(b1-6)]GalNAc
# Summary of the method: as §1
# [19] = target: Fuc(a1-2)[Gal(a1-3)]Gal(b1-4)GlcNAc(b1-6)GalNAc
# Summary of the method: as §1
# [20] = target: Fuc(a1-2)[Gal(a1-3)]Gal(b1-4)[Fuc(a1-3)]Glc
# Summary of the method: as §1
# [21] = target: Fuc(a1-2)[Gal(a1-3)]Gal(b1-4)[Fuc(a1-3)]GlcNAc
# Summary of the method: as §1
# [22] = target: Fuc(a1-2)[Gal(a1-3)]Gal(b1-4)[Fuc(a1-3)]GlcNAc(b1-3)GalNAc
# Summary of the method: as §1
# [23] = target: Fuc(a1-2)[Gal(a1-4)]Gal(b1-4)GlcNAc
# Summary of the method: as §1
# [24] = target: Fuc(a1-2)[GalNAc(a1-3)]Gal
# Summary of the method: as §1
# [25] = target: Fuc(a1-2)[GalNAc(a1-3)]Gal(b1-3)GalNAc(a1-3)[Fuc(a1-2)]Gal(b1-4)GlcNAc
# Summary of the method: as §1
# [26] = target: Fuc(a1-2)[GalNAc(a1-3)]Gal(b1-3)GalNAc(b1-3)Gal(a1-4)Gal(b1-4)Glc
# Summary of the method: as §1
# [27] = target: Fuc(a1-2)[GalNAc(a1-3)]Gal(b1-3)GlcNAc
# Summary of the method: as §1
# [28] = target: Fuc(a1-2)[GalNAc(a1-3)]Gal(b1-3)GlcNAc(b1-2)Man(a1-3)[Fuc(a1-2)[GalNAc(a1-3)]Gal(b1-3)GlcNAc(b1-2)Man(a1-6)]Man(b1-4)GlcNAc(b1-4)GlcNAc
# Summary of the method: as §1
# [29] = target: Fuc(a1-2)[GalNAc(a1-3)]Gal(b1-3)GlcNAc(b1-2)Man(a1-3)[Fuc(a1-2)[GalNAc(a1-3)]Gal(b1-3)GlcNAc(b1-2)Man(a1-6)]Man(b1-4)GlcNAc(b1-4)[Fuc(a1-6)]GlcNAc
# Summary of the method: as §1
# [30] = target: Fuc(a1-2)[GalNAc(a1-3)]Gal(b1-3)GlcNAc(b1-3)GalNAc
# Summary of the method: as §1
# [31] = target: Fuc(a1-2)[GalNAc(a1-3)]Gal(b1-3)GlcNAc(b1-6)GalNAc
# Summary of the method: as §1
# [32] = target: Fuc(a1-2)[GalNAc(a1-3)]Gal(b1-4)Glc
# Summary of the method: as §1
# [33] = target: Fuc(a1-2)[GalNAc(a1-3)]Gal(b1-4)GlcNAc
# Summary of the method: as §1
# [34] = target: Fuc(a1-2)[GalNAc(a1-3)]Gal(b1-4)GlcNAc(b1-2)Man
# Summary of the method: as §1
# [35] = target: Fuc(a1-2)[GalNAc(a1-3)]Gal(b1-4)GlcNAc(b1-2)Man(a1-3)[Fuc(a1-2)[GalNAc(a1-3)]Gal(b1-4)GlcNAc(b1-2)Man(a1-6)]Man(b1-4)GlcNAc(b1-4)GlcNAc
# Summary of the method: as §1
# [36] = target: Fuc(a1-2)[GalNAc(a1-3)]Gal(b1-4)GlcNAc(b1-2)Man(a1-3)[Fuc(a1-2)[GalNAc(a1-3)]Gal(b1-4)GlcNAc(b1-2)Man(a1-6)]Man(b1-4)GlcNAc(b1-4)[Fuc(a1-6)]GlcNAc
# Summary of the method: as §1
# [37] = target: Fuc(a1-2)[GalNAc(a1-3)]Gal(b1-4)GlcNAc(b1-3)Gal(b1-4)GlcNAc
# Summary of the method: as §1
# [38] = target: Fuc(a1-2)[GalNAc(a1-3)]Gal(b1-4)GlcNAc(b1-3)Gal(b1-4)GlcNAc(b1-3)Gal(b1-4)GlcNAc
# Summary of the method: as §1
# [39] = target: Fuc(a1-2)[GalNAc(a1-3)]Gal(b1-4)GlcNAc(b1-3)GalNAc
# Summary of the method: as §1
# [40] = target: Fuc(a1-2)[GalNAc(a1-3)]Gal(b1-4)GlcNAc(b1-3)[Fuc(a1-2)[GalNAc(a1-3)]Gal(b1-4)GlcNAc(b1-6)]GalNAc
# Summary of the method: as §1
# [41] = target: Fuc(a1-2)[GalNAc(a1-3)]Gal(b1-4)GlcNAc(b1-6)GalNAc
# Summary of the method: as §1
# [42] = target: Fuc(a1-2)[GalNAc(a1-3)]Gal(b1-4)[Fuc(a1-3)]GlcNAc
# Summary of the method: as §1
# [43] = target: Fuc(a1-2)[GalNAc(a1-3)]Gal(b1-4)[Fuc(a1-3)]GlcNAc(b1-3)GalNAc
# Summary of the method: as §1
# [44] = target: Fuc(a1-2)[GalNAc(a1-4)]Gal(b1-4)GlcNAc
# Summary of the method: as §1
# [45] = target: Fuc(a1-2)[GalNAc(b1-3)]Gal
# Summary of the method: as §1
binder,measurement,setting,value
Si Bti9 1b-HA (Solanum lycopersicum) (protein) MFESRPRSVLSLGVFVILVYLSSVPLPVNSQCNRGCDLALASFYVWRGSNLTLISEMFSTSIADIVSYNNRDNIPNQDSVIAGTRINIPFRCDCLNDGEVLGHAFPYRVKSGDTYDLVARNYSDLTTAQWMMKFNSYPENNIPNTVNLSVVVNCSCGNSDVSKDFGLFVTYPVRAEDNLTSVASAANVSEDIIRRYNPAAVSILDIGQGIIYIPGRDRNGNFPPLPTSTDGLSGGAKAPLFFNPAFLYKVVELKLAGRSRTSGYPYDVPDYAGYPYDVPDYALEVLFQ,glycan array binding signal (z-score),[1],0.838
same,glycan array binding signal (z-score),[2],-0.028
same,glycan array binding signal (z-score),[3],-0.19
same,glycan array binding signal (z-score),[4],-0.309
same,glycan array binding signal (z-score),[5],-0.11
same,glycan array binding signal (z-score),[6],-0.308
same,glycan array binding signal (z-score),[7],1.43
same,glycan array binding signal (z-score),[8],-0.203
same,glycan array binding signal (z-score),[9],2.04
same,glycan array binding signal (z-score),[10],-0.307
same,glycan array binding signal (z-score),[11],0.175
same,glycan array binding signal (z-score),[12],0.486
same,glycan array binding signal (z-score),[13],-0.227
same,glycan array binding signal (z-score),[14],-0.31
same,glycan array binding signal (z-score),[15],0.315
same,glycan array binding signal (z-score),[16],-0.133
same,glycan array binding signal (z-score),[17],-0.283
same,glycan array binding signal (z-score),[18],0.16
same,glycan array binding signal (z-score),[19],0.313
same,glycan array binding signal (z-score),[20],-0.449
same,glycan array binding signal (z-score),[21],-0.28
same,glycan array binding signal (z-score),[22],-0.133
same,glycan array binding signal (z-score),[23],-0.033
same,glycan array binding signal (z-score),[24],-0.349
same,glycan array binding signal (z-score),[25],-0.24
same,glycan array binding signal (z-score),[26],0.063
same,glycan array binding signal (z-score),[27],-0.146
same,glycan array binding signal (z-score),[28],-0.23
same,glycan array binding signal (z-score),[29],0.109
same,glycan array binding signal (z-score),[30],0.101
same,glycan array binding signal (z-score),[31],-0.356
same,glycan array binding signal (z-score),[32],-0.453
same,glycan array binding signal (z-score),[33],-0.426
same,glycan array binding signal (z-score),[34],-0.237
same,glycan array binding signal (z-score),[35],-0.17
same,glycan array binding signal (z-score),[36],0.288
same,glycan array binding signal (z-score),[37],-0.569
same,glycan array binding signal (z-score),[38],-0.298
same,glycan array binding signal (z-score),[39],0.004
same,glycan array binding signal (z-score),[40],-0.137
same,glycan array binding signal (z-score),[41],-0.076
same,glycan array binding signal (z-score),[42],0.334
same,glycan array binding signal (z-score),[43],-0.194
same,glycan array binding signal (z-score),[44],-0.486
same,glycan array binding signal (z-score),[45],-0.405
